This is one part of the list. The list includes weakly bound sequences.

The assay deals with T1, MBP-FoxP3dN (UniProt Q99JB6).
T1 sequence: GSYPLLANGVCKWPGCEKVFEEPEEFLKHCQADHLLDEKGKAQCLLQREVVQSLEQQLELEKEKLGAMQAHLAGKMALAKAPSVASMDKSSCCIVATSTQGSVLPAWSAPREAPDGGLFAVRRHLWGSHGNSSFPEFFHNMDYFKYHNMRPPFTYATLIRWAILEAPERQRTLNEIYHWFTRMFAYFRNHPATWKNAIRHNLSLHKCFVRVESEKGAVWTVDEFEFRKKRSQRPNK
The assay is described as follows: PD-seq (MBP pull-down with sequencing). The settings on record: 20 mM Tris-HCl pH 7.5, 100 mM NaCl, 1.5 mM MgCl2, 0.4 uM protein, 0.1 uM dsDNA library, 30 min, room temperature, amylose pull-down; high values mean tight binding; double strand, one strand shown.
As for “GATGATTGTTCTCCCAGCTGATGAATTTGTTTCATCGAGTAAACAAATTTTCCTAATCTTTCTGTTCAAGCGCCATCTAC”, the binding signal (RPM ratio (pull-down/input)) stood at 5.47.

For the sequence “GATGATTGTTCTCCCAGCTGATGAATTTTTAGAATCGAGTAAACAAATTTTCCTAATCTTTCTGTTCAAGCGCCATCTAC”, the binding signal (RPM ratio (pull-down/input)) amounted to 0.201.

As to “GATGATTGTTCTCCCAGCTGATGAATTAGGCGGTTCGAGTAAACAAATTTTCCTAATCTTTCTGTTCAAGCGCCATCTAC”, the binding signal (RPM ratio (pull-down/input)) was determined as 0.736.

For “GATGATTGTTCTCCCAGCTGATGAATTTGGTGGGTCGAGTAAACAAATTTTCCTAATCTTTCTGTTCAAGCGCCATCTAC”, the binding signal (RPM ratio (pull-down/input)) was 1.57.

“GATGATTGTTCTCCCAGCTGATGAATTGCCCAACTCGAGTAAACAAATTTTCCTAATCTTTCTGTTCAAGCGCCATCTAC”: the binding signal (RPM ratio (pull-down/input)) came to 0.42.

Regarding “GATGATTGTTCTCCCAGCTGATGAATTACGACAATCGAGTAAACAAATTTTCCTAATCTTTCTGTTCAAGCGCCATCTAC”, the binding signal (RPM ratio (pull-down/input)) came to 0.598.

Regarding “GATGATTGTTCTCCCAGCTGATGAATTGCAGACGTCGAGTAAACAAATTTTCCTAATCTTTCTGTTCAAGCGCCATCTAC”, the binding signal (RPM ratio (pull-down/input)) is 0.531.

As to “GATGATTGTTCTCCCAGCTGATGAATTTAGGGTATCGAGTAAACAAATTTTCCTAATCTTTCTGTTCAAGCGCCATCTAC”, the binding signal (RPM ratio (pull-down/input)) was 1.02.

For the sequence “GATGATTGTTCTCCCAGCTGATGAATTCCGAGCCTCGAGTAAACAAATTTTCCTAATCTTTCTGTTCAAGCGCCATCTAC”, the binding signal (RPM ratio (pull-down/input)) amounted to 0.427.

Take “GATGATTGTTCTCCCAGCTGATGAATTTTCTCCATCGAGTAAACAAATTTTCCTAATCTTTCTGTTCAAGCGCCATCTAC”: the binding signal (RPM ratio (pull-down/input)) was found to be 0.266.

On to “GATGATTGTTCTCCCAGCTGATGAATTTTTTTATTCGAGTAAACAAATTTTCCTAATCTTTCTGTTCAAGCGCCATCTAC”, for which the binding signal (RPM ratio (pull-down/input)) was found to be 0.313.

On to “GATGATTGTTCTCCCAGCTGATGAATTACCTTGGTCGAGTAAACAAATTTTCCTAATCTTTCTGTTCAAGCGCCATCTAC”, for which the binding signal (RPM ratio (pull-down/input)) was 0.26.

Turning to “GATGATTGTTCTCCCAGCTGATGAATTATGCCGGTCGAGTAAACAAATTTTCCTAATCTTTCTGTTCAAGCGCCATCTAC”, the binding signal (RPM ratio (pull-down/input)) worked out at 1.15.

Turning to “GATGATTGTTCTCCCAGCTGATGAATTTAACTCCTCGAGTAAACAAATTTTCCTAATCTTTCTGTTCAAGCGCCATCTAC”, the binding signal (RPM ratio (pull-down/input)) was 0.351.

As to “GATGATTGTTCTCCCAGCTGATGAATTTTCTAAGTCGAGTAAACAAATTTTCCTAATCTTTCTGTTCAAGCGCCATCTAC”, the binding signal (RPM ratio (pull-down/input)) came to 0.193.

“GATGATTGTTCTCCCAGCTGATGAATTAAGCAGCTCGAGTAAACAAATTTTCCTAATCTTTCTGTTCAAGCGCCATCTAC”: the binding signal (RPM ratio (pull-down/input)) was found to be 1.33.

Turning to “GATGATTGTTCTCCCAGCTGATGAATTCACCGTGTCGAGTAAACAAATTTTCCTAATCTTTCTGTTCAAGCGCCATCTAC”, the binding signal (RPM ratio (pull-down/input)) was determined as 0.424.

For the sequence “GATGATTGTTCTCCCAGCTGATGAATTTATGTAATCGAGTAAACAAATTTTCCTAATCTTTCTGTTCAAGCGCCATCTAC”, the binding signal (RPM ratio (pull-down/input)) was found to be 2.2.

In the case of “GATGATTGTTCTCCCAGCTGATGAATTGCCTATGTCGAGTAAACAAATTTTCCTAATCTTTCTGTTCAAGCGCCATCTAC”, the binding signal (RPM ratio (pull-down/input)) turned out to be 0.617.

Consider “GATGATTGTTCTCCCAGCTGATGAATTGGTGAGCTCGAGTAAACAAATTTTCCTAATCTTTCTGTTCAAGCGCCATCTAC”, for which the binding signal (RPM ratio (pull-down/input)) was 0.441.

With “GATGATTGTTCTCCCAGCTGATGAATTAGAAGGTTCGAGTAAACAAATTTTCCTAATCTTTCTGTTCAAGCGCCATCTAC”, the binding signal (RPM ratio (pull-down/input)) stood at 0.276.

Turning to “GATGATTGTTCTCCCAGCTGATGAATTGGCCGATTCGAGTAAACAAATTTTCCTAATCTTTCTGTTCAAGCGCCATCTAC”, the binding signal (RPM ratio (pull-down/input)) worked out at 0.305.

Consider “GATGATTGTTCTCCCAGCTGATGAATTCTTATAGTCGAGTAAACAAATTTTCCTAATCTTTCTGTTCAAGCGCCATCTAC”, for which the binding signal (RPM ratio (pull-down/input)) was determined as 0.248.

Turning to “GATGATTGTTCTCCCAGCTGATGAATTTCGTACCTCGAGTAAACAAATTTTCCTAATCTTTCTGTTCAAGCGCCATCTAC”, the binding signal (RPM ratio (pull-down/input)) amounted to 0.775.

As for “GATGATTGTTCTCCCAGCTGATGAATTCTCGATTTCGAGTAAACAAATTTTCCTAATCTTTCTGTTCAAGCGCCATCTAC”, the binding signal (RPM ratio (pull-down/input)) turned out to be 0.367.

On to “GATGATTGTTCTCCCAGCTGATGAATTCTATCATTCGAGTAAACAAATTTTCCTAATCTTTCTGTTCAAGCGCCATCTAC”, for which the binding signal (RPM ratio (pull-down/input)) came out at 1.72.

Consider “GATGATTGTTCTCCCAGCTGATGAATTTTCATCATCGAGTAAACAAATTTTCCTAATCTTTCTGTTCAAGCGCCATCTAC”, for which the binding signal (RPM ratio (pull-down/input)) was determined as 0.474.

As for “GATGATTGTTCTCCCAGCTGATGAATTTAACGAATCGAGTAAACAAATTTTCCTAATCTTTCTGTTCAAGCGCCATCTAC”, the binding signal (RPM ratio (pull-down/input)) turned out to be 0.242.

Consider “GATGATTGTTCTCCCAGCTGATGAATTTGAACTATCGAGTAAACAAATTTTCCTAATCTTTCTGTTCAAGCGCCATCTAC”, for which the binding signal (RPM ratio (pull-down/input)) amounted to 0.365.

For “GATGATTGTTCTCCCAGCTGATGAATTCGGCTGCTCGAGTAAACAAATTTTCCTAATCTTTCTGTTCAAGCGCCATCTAC”, the binding signal (RPM ratio (pull-down/input)) stood at 0.484.

For “GATGATTGTTCTCCCAGCTGATGAATTCTTGGATTCGAGTAAACAAATTTTCCTAATCTTTCTGTTCAAGCGCCATCTAC”, the binding signal (RPM ratio (pull-down/input)) is 0.229.

“GATGATTGTTCTCCCAGCTGATGAATTCGACAAGTCGAGTAAACAAATTTTCCTAATCTTTCTGTTCAAGCGCCATCTAC”: the binding signal (RPM ratio (pull-down/input)) was determined as 0.255.

As for “GATGATTGTTCTCCCAGCTGATGAATTGAGTTAATCGAGTAAACAAATTTTCCTAATCTTTCTGTTCAAGCGCCATCTAC”, the binding signal (RPM ratio (pull-down/input)) is 0.369.

As to “GATGATTGTTCTCCCAGCTGATGAATTCATGGTCTCGAGTAAACAAATTTTCCTAATCTTTCTGTTCAAGCGCCATCTAC”, the binding signal (RPM ratio (pull-down/input)) came out at 0.77.

Regarding “GATGATTGTTCTCCCAGCTGATGAATTTTTTGAATCGAGTAAACAAATTTTCCTAATCTTTCTGTTCAAGCGCCATCTAC”, the binding signal (RPM ratio (pull-down/input)) amounted to 0.229.

Take “GATGATTGTTCTCCCAGCTGATGAATTTCCCCAATCGAGTAAACAAATTTTCCTAATCTTTCTGTTCAAGCGCCATCTAC”: the binding signal (RPM ratio (pull-down/input)) came out at 0.258.

In the case of “GATGATTGTTCTCCCAGCTGATGAATTTTTGTAGTCGAGTAAACAAATTTTCCTAATCTTTCTGTTCAAGCGCCATCTAC”, the binding signal (RPM ratio (pull-down/input)) is 0.53.

Turning to “GATGATTGTTCTCCCAGCTGATGAATTGTAATAGTCGAGTAAACAAATTTTCCTAATCTTTCTGTTCAAGCGCCATCTAC”, the binding signal (RPM ratio (pull-down/input)) was 1.05.

Consider “GATGATTGTTCTCCCAGCTGATGAATTGATCATGTCGAGTAAACAAATTTTCCTAATCTTTCTGTTCAAGCGCCATCTAC”, for which the binding signal (RPM ratio (pull-down/input)) amounted to 0.656.

Regarding “GATGATTGTTCTCCCAGCTGATGAATTCCTGTAGTCGAGTAAACAAATTTTCCTAATCTTTCTGTTCAAGCGCCATCTAC”, the binding signal (RPM ratio (pull-down/input)) worked out at 0.369.

(Values after publication PMC12820563.)
